Measured values published in paper PMC4858292, “Determination of the CD148-Interacting Region in Thrombospondin-1” (PLoS ONE, 2016).
Results are given in words; binding and its absence hold for the method and conditions named. Some results given as binding are weak or reduced against the parent protein; the word gives no strength. Tags and fused reporters may be left off the sequences shown.

T1: CD148-Fc (CD148 ectodomain fused to Fc region of human IgG) (UniProt Q12913)
T1 sequence: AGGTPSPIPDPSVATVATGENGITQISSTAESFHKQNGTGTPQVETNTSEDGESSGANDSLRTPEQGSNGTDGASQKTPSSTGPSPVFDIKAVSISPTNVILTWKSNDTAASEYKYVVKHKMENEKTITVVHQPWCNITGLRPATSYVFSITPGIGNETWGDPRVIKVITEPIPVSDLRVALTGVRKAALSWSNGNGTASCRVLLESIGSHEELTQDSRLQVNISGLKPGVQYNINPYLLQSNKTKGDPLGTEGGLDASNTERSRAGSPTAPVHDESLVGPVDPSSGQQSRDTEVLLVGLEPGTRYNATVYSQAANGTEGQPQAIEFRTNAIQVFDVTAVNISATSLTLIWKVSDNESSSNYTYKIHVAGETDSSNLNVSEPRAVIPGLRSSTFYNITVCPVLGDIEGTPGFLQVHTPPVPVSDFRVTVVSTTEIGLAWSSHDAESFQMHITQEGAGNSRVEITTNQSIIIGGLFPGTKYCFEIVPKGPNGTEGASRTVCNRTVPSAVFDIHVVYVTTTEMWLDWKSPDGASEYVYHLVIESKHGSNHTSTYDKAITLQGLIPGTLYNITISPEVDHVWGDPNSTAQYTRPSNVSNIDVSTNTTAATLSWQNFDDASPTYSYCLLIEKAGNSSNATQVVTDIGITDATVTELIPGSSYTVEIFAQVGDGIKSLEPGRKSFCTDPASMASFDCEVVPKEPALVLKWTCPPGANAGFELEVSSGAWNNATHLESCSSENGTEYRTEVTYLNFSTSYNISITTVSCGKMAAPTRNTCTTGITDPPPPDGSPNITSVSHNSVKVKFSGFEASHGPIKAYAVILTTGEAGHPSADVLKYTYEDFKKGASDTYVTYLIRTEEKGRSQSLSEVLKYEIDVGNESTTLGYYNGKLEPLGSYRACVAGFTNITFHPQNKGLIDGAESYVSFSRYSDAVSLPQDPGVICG

B1: Trimeric TSP1 fragment, oligomerization domain + procollagen + type 1 repeats (aa 261–547) (domain or fragment, human, UniProt P07996 261-547, looked up)
chain: HKTKDLQAICGISCDELSSMVLELRGLRTIVTTLQDSIRKVTEENKELANELRRPPLCYHNGVQYRNNEEWTVDSCTECHCQNSVTICKKVSCPIMPCSNATVPDGECCPRCWPSDSADDGWSPWSEWTSCSTSCGNGIQQRGRSCDSLNNRCEGSSVQTRTCHIQECDKRFKQDGGWSHWSPWSSCSVTCGDGVITRIRLCNSPSPQMNGKPCEGEARETKACKKDACPINGGWGPWSPWDICSVTCGGGVQKRSRLCNNPTPQFGGKDCVGDVTENQICNKQDCP
notes: Subcloned into HindIII and XbaI sites of the APtag-5 vector; also called trimeric TSP1 fragment containing the procollagen domain and type 1 repeats; trimeric TSP1 fragment that contains all three type 1 repeats; source: HEK293E suspension culture, transient transfection, purified from culture supernatant (HisTrap Excel); not shown: Myc, C-terminal, kept

These molecules were tested against T1, CD148-Fc (CD148 ectodomain fused to Fc region of human IgG) (assay: solid-phase binding assay with AP-fusion protein (AP activity read-out), competition; Protein A-coated plates coated with CD148-Fc (11.3 nM) or equal molar control Fc; pre-incubated with TSP1 fragments or whole TSP1 (25 nM; also 100 nM, S2 Fig) 1 h at 4°C; 12 nM AP-TSP1 with or without fragments overnight at 4°C; HBHA buffer pH 7.0; both purified).

Molecule | binding
AP-TSP1 (alkaline phosphatase linked to TSP1) (from UniProt P07996 19-1170) (ligand) | binds
Native human TSP1 (from UniProt P07996 19-1170) | binds

The molecules below were run against T1, CD148-Fc (CD148 ectodomain fused to Fc region of human IgG) (assay: pull-down; TSP1 fragments (17 nM) incubated with CD148-Fc (44 pmol) or equal mole of control Fc for 4 h at 4°C; Fc proteins pulled down with Protein-G sepharose 1 h at 4°C; beads washed with PBS; bound protein by anti-Myc immunoblotting; both purified).

Molecule | binding
TSP1 fragment, procollagen + type 1 repeats (aa 316–547) (from UniProt P07996 316-547) (domain or fragment) | binds
TSP1 fragment, type 2 repeats (aa 548–690) (from UniProt P07996 548-690) (domain or fragment) | no binding (tested: 17 nM)
TSP1 fragment, amino-terminus (aa 24–221) (from UniProt P07996 24-221) (domain or fragment) | no binding (tested: 17 nM)
TSP1 fragment, type 3 repeats and C-terminus (aa 691–1170) (from UniProt P07996 691-1170) (domain or fragment) | no binding (tested: 17 nM)
TSP1 fragment, procollagen (aa 316–373) (from UniProt P07996 316-373) (domain or fragment) | no binding (tested: 17 nM)
TSP1 fragment, procollagen + 1^st type 1 repeat (aa316-429) (from UniProt P07996 316-429) (domain or fragment) | binds
TSP1 fragment, 1^st type 1 repeat (aa 379–429) (from UniProt P07996 379-429) (domain or fragment) | binds
TSP1 fragment, 2^nd & 3^rd type 1 repeats (aa 435–547) (from UniProt P07996 435-547) (domain or fragment) | no binding (tested: 17 nM)
TSP1 fragment, type 1 repeats (aa 379–547) (from UniProt P07996 379-547) (domain or fragment) | binds

These molecules were tested against T1, CD148-Fc (CD148 ectodomain fused to Fc region of human IgG) (assay: pull-down; CD148-Fc pull-down as in Fig 1B, bound fragment detected by colloidal blue stain; data not shown; both purified).

Molecule | binding
TSP1 fragment, procollagen + type 1 repeats (aa 316–547) (from UniProt P07996 316-547) (domain or fragment) | binds

Each molecule was assayed against T1, CD148-Fc (CD148 ectodomain fused to Fc region of human IgG) (assay: solid-phase binding assay with AP-fusion protein (AP activity read-out), competition; Protein-A plates with CD148-Fc (11.3 nM) or control Fc; AP-TSP1 (12 nM) with indicated doses of monomeric or trimeric TSP1 fragments, as in Fig 1C; compared by molar concentration and by valency; both purified).

Molecule | binding
AP-TSP1 (alkaline phosphatase linked to TSP1) (from UniProt P07996 19-1170) (ligand) | binds
B1 | binds
